Test results published in the supplement of paper PMC4967469.
A lower IC50 marks a more sensitive line; fits outside the tested doses are given as limits. The AUC spans the tested range (256-fold, ending at the top dose) of the same fit; the more sensitive the line, the further below 1. For some assays here: Any top dose called inferred was derived from the fitted curves, not read from the paper.

What was measured:
Assay in all cases: Viability of human cancer cell lines after 72 h of drug (GDSC screen)
[1] = compound: CC(=O)Nc1cccc(-n2c(=O)n(C3CC3)c(=O)c3c(Nc4ccc(I)cc4F)n(C)c(=O)c(C)c32)c1 [Trametinib]; details: top dose 1 µM
Description: (§1)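 Human cancer cell lines in 384-well plates, medium with 10% serum, drug for 72 h over a 256-fold dose range (nine 2-fold or five 4-fold steps up to the top dose). Adherent lines were fixed and stained with the nucleic acid dye Syto60, suspension lines read with resazurin; signal relative to control wells, capped at 0 and 100%. One two-parameter sigmoid per drug and line, fitted in a mixed model over all curves with the slope shared within a line.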

[2] = compound: CCN1CCN(Cc2ccc(NC(=O)c3ccc(C)c(/C=C/c4cnc5[nH]ccc5c4OC)c3)cc2C(F)(F)F)CC1 [HG-6-64-1]; details: top dose 5.12 µM; top dose inferred
Description: as §1

[3] = compound: CCc1cncnc1N1CCN(Cc2nc3ccc(C(F)(F)F)cc3[nH]2)CC1 [PF-4708671]; details: top dose 10 µM; top dose inferred
Description: as §1

[4] = compound: Nc1ccccc1NC(=O)c1ccc(CNC(=O)OCc2cccnc2)cc1 [MS-275]; details: top dose 5 µM; top dose inferred
Description: as §1

[5] = compound: O=C(NC(COc1ccc2[nH]c(=O)[nH]c2c1)c1ccccc1)c1cccn(Cc2ccc(F)c(F)c2)c1=O [KIN001-244]; details: top dose 20 µM; top dose inferred
Description: as §1

[6] = compound: CCNC(=O)C[C@@H]1N=C(c2ccc(Cl)cc2)c2cc(OC)ccc2-n2c(C)nnc21 [I-BET-762]; details: top dose 20 µM; top dose inferred
Description: as §1

[7] = compound: COc1cc2nccc(Oc3ccc(NC(=O)Nc4cc(C)on4)c(Cl)c3)c2cc1OC [AV-951]; details: top dose 0.128 µM; top dose inferred
Description: as §1

Cell Line | AUC [1] | IC50 [1] [nM] | AUC [2] | IC50 [2] [nM] | AUC [3] | IC50 [3] [nM] | AUC [4] | IC50 [4] [nM] | AUC [5] | IC50 [5] [nM] | AUC [6] | IC50 [6] [nM] | AUC [7] | IC50 [7] [nM]
SK-UT-1 (soft tissue, adherent) | 0.906 | > 1000 | 0.497 | 314 | 0.98 | > 10000 | 0.783 | 1900 | 0.913 | > 20000 | 0.989 | > 20000 | 0.989 | > 128
SLVL (B-cell lymphoma, suspension) | 0.926 | > 1000 | 0.826 | 3360 | 0.979 | > 10000 | 0.433 | 203 | 0.724 | 5660 | 0.738 | 6260 | 0.976 | > 128
SNB75 (glioma, adherent) | 0.815 | 906 | 0.614 | 762 | 0.979 | > 10000 | 0.889 | > 5000 | 0.978 | > 20000 | 0.868 | > 20000 | 0.966 | > 128
SNU-C1 (large intestine, suspension) | 0.221 | 6.23 | 0.897 | > 5120 | 0.943 | > 10000 | 0.859 | > 5000 | 0.92 | > 20000 | 0.97 | > 20000 | 0.98 | > 128
SR (lymphoid neoplasm, suspension) | 0.876 | 827 | 0.793 | 2080 | 0.919 | > 10000 | 0.517 | 346 | 0.335 | 459 | 0.86 | 14100 | 0.961 | > 128
ST486 (Burkitt lymphoma, suspension) | 0.989 | > 1000 | 0.683 | 968 | 0.94 | > 10000 | 0.661 | 825 | 0.501 | 1260 | 0.638 | 2860 | 0.982 | > 128
SU-DHL-4 (B-cell lymphoma, suspension) | 0.997 | > 1000 | 0.644 | 711 | 0.986 | > 10000 | 0.528 | 365 | 0.913 | 14000 | 0.813 | 7290 | 0.996 | > 128
SU-DHL-6 (B-cell lymphoma, suspension) | 0.995 | > 1000 | 0.478 | 284 | 0.992 | > 10000 | 0.443 | 227 | 0.684 | 3520 | 0.51 | 1320 | 0.995 | > 128
SU-DHL-8 (B-cell lymphoma, suspension) | 0.945 | > 1000 | 0.803 | 2330 | 0.977 | > 10000 | 0.383 | 152 | 0.663 | 3440 | 0.569 | 1900 | 0.938 | > 128
SU-DHL-16 (B-cell lymphoma, suspension) | 0.994 | > 1000 | 0.384 | 167 | 0.962 | > 10000 | 0.8 | 1710 | 0.682 | 3450 | 0.421 | 804 | 0.978 | > 128
SUP-HD1 (Hodgkin lymphoma, suspension) | 0.973 | > 1000 | 0.843 | 3370 | 0.983 | > 10000 | 0.707 | 1160 | 0.728 | 5350 | 0.848 | 13800 | 0.988 | > 128
SUP-M2 (anaplastic large cell lymphoma, suspension) | 0.984 | > 1000 | 0.994 | > 5120 | 0.977 | > 10000 | 0.721 | 1100 | 0.871 | 11700 | 0.7 | 3890 | 0.974 | > 128
SUP-T1 (T-cell lymphoblastic leukaemia, suspension) | 0.986 | > 1000 | 0.476 | 277 | 0.953 | > 10000 | 0.987 | > 5000 | 0.88 | 17400 | 0.692 | 4070 | 0.99 | > 128
SW684 (fibrosarcoma, adherent) | 0.849 | > 1000 | 0.893 | > 5120 | 0.982 | > 10000 | 0.938 | > 5000 | 0.983 | > 20000 | 0.983 | > 20000 | 0.98 | > 128
SW872 (soft tissue, adherent) | 0.21 | 9.76 | 0.586 | 537 | 0.939 | > 10000 | 0.776 | 1800 | 0.935 | > 20000 | 0.792 | 8100 | 0.989 | > 128
SW954 (urogenital system, adherent) | 0.308 | 18 | 0.628 | 725 | 0.973 | > 10000 | 0.611 | 634 | 0.745 | 6360 | 0.897 | > 20000 | 0.979 | > 128
SW962 (urogenital system, adherent) | 0.617 | 142 | 0.92 | > 5120 | 0.971 | > 10000 | 0.818 | 3750 | 0.795 | 11900 | 0.726 | 6500 | 0.979 | > 128
TE-1 (oesophagus, adherent) | 0.744 | 383 | 0.909 | > 5120 | 0.919 | > 10000 | 0.55 | 444 | 0.971 | > 20000 | 0.981 | > 20000 | 0.981 | > 128
TE-5 (oesophagus, adherent) | 0.601 | 124 | 0.841 | 4360 | 0.972 | > 10000 | 0.786 | 2510 | 0.938 | > 20000 | 0.96 | > 20000 | 0.984 | > 128
